Experimental data reported in PMC9911399, “Two distinct binding modes provide the RNA-binding protein RbFox with extraordinary sequence specificity”.
Positions count from the first letter of the chain named. The list shows a part of the results.

B1: CGCAGCG (DNA:RNA)
RNA: GGGAGACCGGAAUUCAGAUUGUCCCGCAGCGUUAAAUCCCGUCGUAGCCACCA
DNA 1: CAATCTGAATTCCGGTCTCCC
DNA 2: TGGTGGCTACGACGGGATT
B2: GCUAGAG (DNA:RNA)
RNA: B1 RNA with C25G, G26C, C27U, C30A
DNA 1: CAATCTGAATTCCGGTCTCCC
DNA 2: TGGTGGCTACGACGGGATT
B3: CGGCAGA (DNA:RNA)
RNA: B1 RNA with C27G, A28C, G29A, C30G, G31A
DNA 1: CAATCTGAATTCCGGTCTCCC
DNA 2: TGGTGGCTACGACGGGATT
B4: GGACUCU (DNA:RNA)
RNA: B1 RNA with C25G, C27A, A28C, G29U, G31U
DNA 1: CAATCTGAATTCCGGTCTCCC
DNA 2: TGGTGGCTACGACGGGATT
B5: CAGGUAC (DNA:RNA)
RNA: B1 RNA with G26A, C27G, A28G, G29U, C30A, G31C
DNA 1: CAATCTGAATTCCGGTCTCCC
DNA 2: TGGTGGCTACGACGGGATT
B6: AAACUCC (DNA:RNA)
RNA: B1 RNA with C25A, G26A, C27A, A28C, G29U, G31C
DNA 1: CAATCTGAATTCCGGTCTCCC
DNA 2: TGGTGGCTACGACGGGATT
B7: AAGAAUC (DNA:RNA)
RNA: B1 RNA with C25A, G26A, C27G, G29A, C30U, G31C
DNA 1: CAATCTGAATTCCGGTCTCCC
DNA 2: TGGTGGCTACGACGGGATT
B8: UCAGACG (DNA:RNA)
RNA: B1 RNA with C25U, G26C, C27A, A28G, G29A
DNA 1: CAATCTGAATTCCGGTCTCCC
DNA 2: TGGTGGCTACGACGGGATT
B9: UCGUAUC (DNA:RNA)
RNA: GGGAGACCGGAAUUCAGAUUGUCCUCGUAUCUUAAAUCCCGUCGUAGCCACCA
DNA 1: CAATCTGAATTCCGGTCTCCC
DNA 2: TGGTGGCTACGACGGGATT
B10: CUCGAUU (DNA:RNA)
RNA: B1 RNA with G26U, A28G, G29A, C30U, G31U
DNA 1: CAATCTGAATTCCGGTCTCCC
DNA 2: TGGTGGCTACGACGGGATT
B11: GUAUGCG (DNA:RNA)
RNA: B1 RNA with C25G, G26U, C27A, A28U
DNA 1: CAATCTGAATTCCGGTCTCCC
DNA 2: TGGTGGCTACGACGGGATT
B12: GAACCAC (DNA:RNA)
RNA: B9 RNA with U25G, C26A, G27A, U28C, A29C, U30A
DNA 1: CAATCTGAATTCCGGTCTCCC
DNA 2: TGGTGGCTACGACGGGATT
B13: AAACCGC (DNA:RNA)
RNA: B9 RNA with U25A, C26A, G27A, U28C, A29C, U30G
DNA 1: CAATCTGAATTCCGGTCTCCC
DNA 2: TGGTGGCTACGACGGGATT
B14: CUCAAUA (DNA:RNA)
RNA: B1 RNA with G26U, G29A, C30U, G31A
DNA 1: CAATCTGAATTCCGGTCTCCC
DNA 2: TGGTGGCTACGACGGGATT
B15: GCGAGUC (DNA:RNA)
RNA: B9 RNA with U25G, U28A, A29G
DNA 1: CAATCTGAATTCCGGTCTCCC
DNA 2: TGGTGGCTACGACGGGATT
B16: CUACGUU (DNA:RNA)
RNA: B1 RNA with G26U, C27A, A28C, C30U, G31U
DNA 1: CAATCTGAATTCCGGTCTCCC
DNA 2: TGGTGGCTACGACGGGATT
B17: CGAUUGA (DNA:RNA)
RNA: B1 RNA with C27A, A28U, G29U, C30G, G31A
DNA 1: CAATCTGAATTCCGGTCTCCC
DNA 2: TGGTGGCTACGACGGGATT
B18: UACAGUG (DNA:RNA)
RNA: B1 RNA with C25U, G26A, C30U
DNA 1: CAATCTGAATTCCGGTCTCCC
DNA 2: TGGTGGCTACGACGGGATT
B19: UAGUCAC (DNA:RNA)
RNA: B9 RNA with C26A, A29C, U30A
DNA 1: CAATCTGAATTCCGGTCTCCC
DNA 2: TGGTGGCTACGACGGGATT
B20: GAUAAGC (DNA:RNA)
RNA: B9 RNA with U25G, C26A, G27U, U28A, U30G
DNA 1: CAATCTGAATTCCGGTCTCCC
DNA 2: TGGTGGCTACGACGGGATT
B21: CCAGCAC (DNA:RNA)
RNA: B9 RNA with U25C, G27A, U28G, A29C, U30A
DNA 1: CAATCTGAATTCCGGTCTCCC
DNA 2: TGGTGGCTACGACGGGATT
B22: CUACGAG (DNA:RNA)
RNA: B1 RNA with G26U, C27A, A28C, C30A
DNA 1: CAATCTGAATTCCGGTCTCCC
DNA 2: TGGTGGCTACGACGGGATT
B23: CUUCCUC (DNA:RNA)
RNA: B9 RNA with U25C, C26U, G27U, U28C, A29C
DNA 1: CAATCTGAATTCCGGTCTCCC
DNA 2: TGGTGGCTACGACGGGATT
B24: CCCUUCA (DNA:RNA)
RNA: B1 RNA with G26C, A28U, G29U, G31A
DNA 1: CAATCTGAATTCCGGTCTCCC
DNA 2: TGGTGGCTACGACGGGATT
B25: GCCCGCC (DNA:RNA)
RNA: B1 RNA with C25G, G26C, A28C, G31C
DNA 1: CAATCTGAATTCCGGTCTCCC
DNA 2: TGGTGGCTACGACGGGATT
B26: CCGAAAA (DNA:RNA)
RNA: B9 RNA with U25C, U28A, U30A, C31A
DNA 1: CAATCTGAATTCCGGTCTCCC
DNA 2: TGGTGGCTACGACGGGATT
B27: ACAACCA (DNA:RNA)
RNA: B1 RNA with C25A, G26C, C27A, G29C, G31A
DNA 1: CAATCTGAATTCCGGTCTCCC
DNA 2: TGGTGGCTACGACGGGATT
B28: UCCUGUG (DNA:RNA)
RNA: B9 RNA with G27C, A29G, C31G
DNA 1: CAATCTGAATTCCGGTCTCCC
DNA 2: TGGTGGCTACGACGGGATT
B29: CAGUAAG (DNA:RNA)
RNA: B9 RNA with U25C, C26A, U30A, C31G
DNA 1: CAATCTGAATTCCGGTCTCCC
DNA 2: TGGTGGCTACGACGGGATT
B30: ACUAUCU (DNA:RNA)
RNA: B1 RNA with C25A, G26C, C27U, G29U, G31U
DNA 1: CAATCTGAATTCCGGTCTCCC
DNA 2: TGGTGGCTACGACGGGATT
B31: UGAAGAA (DNA:RNA)
RNA: B1 RNA with C25U, C27A, C30A, G31A
DNA 1: CAATCTGAATTCCGGTCTCCC
DNA 2: TGGTGGCTACGACGGGATT

Biological target: T1, RBFOX1 RRM (Homo sapiens, UniProt Q9NWB1 109-208)
T1 sequence: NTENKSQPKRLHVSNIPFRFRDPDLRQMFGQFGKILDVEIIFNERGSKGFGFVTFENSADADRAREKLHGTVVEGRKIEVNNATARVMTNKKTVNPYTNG
Assay: EMSA; HiTS-Eq, 1 nM pool, 10 min; buffer printed only for the single-RNA assays: 10 mM Tris pH 7.5, 150 mM NaCl, 3.4 mM EDTA, 0.001% NP-40, 30 C
Details: tags: His6 N-terminal (pET28a); label: 5' 32P
Outline: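 A pool of RNA with 7 randomized nucleotides, 5′-radiolabelled and with DNA-annealed flanks, was equilibrated at 1 nM for 10 min in 50 µL with purified RbFox RRM, wild type or mutant, across increasing protein concentrations. Free RNA was separated by 8% native PAGE, excised, reverse-transcribed, barcoded by PCR and sequenced. Relative association constants were obtained from read-count changes of each RNA species versus the control reaction and normalised to the cognate motif.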

Binder	binding signal
B1	0.0102 KA relative to UGCAUGU
B2	0.0161 KA relative to UGCAUGU
B3	0.0139 KA relative to UGCAUGU
B4	0.0119 KA relative to UGCAUGU
B5	0.0123 KA relative to UGCAUGU
B6	0.000391 KA relative to UGCAUGU
B7	0.00582 KA relative to UGCAUGU
B8	0.00574 KA relative to UGCAUGU
B9	0.0121 KA relative to UGCAUGU
B10	0.0084 KA relative to UGCAUGU
B11	0.0216 KA relative to UGCAUGU
B12	0.00199 KA relative to UGCAUGU
B13	0.00274 KA relative to UGCAUGU
B14	0.00128 KA relative to UGCAUGU
B15	0.0185 KA relative to UGCAUGU
B16	0.00949 KA relative to UGCAUGU

Binder	binding signal
B17	0.0198 KA relative to UGCAUGU
B18	0.0137 KA relative to UGCAUGU
B19	0.00687 KA relative to UGCAUGU
B20	0.00832 KA relative to UGCAUGU
B21	0.00938 KA relative to UGCAUGU
B22	0.00732 KA relative to UGCAUGU
B23	0.0039 KA relative to UGCAUGU
B24	0.00263 KA relative to UGCAUGU
B25	0.0156 KA relative to UGCAUGU
B26	0.00334 KA relative to UGCAUGU
B27	0.000855 KA relative to UGCAUGU
B28	0.0187 KA relative to UGCAUGU
B29	0.00966 KA relative to UGCAUGU
B30	0.000857 KA relative to UGCAUGU
B31	0.0167 KA relative to UGCAUGU
